# The other results are listed elsewhere or left out. The list includes weakly bound sequences.
# Target: T1, MBP-FoxP3dN (UniProt Q99JB6)
# T1 sequence: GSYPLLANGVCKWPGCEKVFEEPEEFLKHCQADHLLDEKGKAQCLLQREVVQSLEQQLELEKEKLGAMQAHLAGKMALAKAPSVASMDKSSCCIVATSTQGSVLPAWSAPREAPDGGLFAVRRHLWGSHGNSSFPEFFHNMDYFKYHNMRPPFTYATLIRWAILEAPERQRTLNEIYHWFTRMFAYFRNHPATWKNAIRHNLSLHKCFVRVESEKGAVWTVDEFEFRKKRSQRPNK
# Test: PD-seq (MBP pull-down with sequencing)
# Settings: 20 mM Tris-HCl pH 7.5, 100 mM NaCl, 1.5 mM MgCl2, 0.4 uM protein, 0.1 uM dsDNA library, 30 min, room temperature, amylose pull-down; high values mean tight binding; double strand, one strand shown
row,Sequence,binding signal (RPM ratio (pull-down/input))
1,GATGATTGTTCTCCCAGCTGATGAATTAAGAAACTCGAGTAAACAAATTTTCCTAATCTTTCTGTTCAAGCGCCATCTAC,0.593
2,GATGATTGTTCTCCCAGCTGATGAATTTCCGCAGTCGAGTAAACAAATTTTCCTAATCTTTCTGTTCAAGCGCCATCTAC,0.485
3,GATGATTGTTCTCCCAGCTGATGAATTCTTGAAGTCGAGTAAACAAATTTTCCTAATCTTTCTGTTCAAGCGCCATCTAC,0.217
4,GATGATTGTTCTCCCAGCTGATGAATTCGTGCGTTCGAGTAAACAAATTTTCCTAATCTTTCTGTTCAAGCGCCATCTAC,1.74
5,GATGATTGTTCTCCCAGCTGATGAATTATGGAGATCGAGTAAACAAATTTTCCTAATCTTTCTGTTCAAGCGCCATCTAC,0.294
6,GATGATTGTTCTCCCAGCTGATGAATTGAGCCTGTCGAGTAAACAAATTTTCCTAATCTTTCTGTTCAAGCGCCATCTAC,4.04
7,GATGATTGTTCTCCCAGCTGATGAATTAATTATATCGAGTAAACAAATTTTCCTAATCTTTCTGTTCAAGCGCCATCTAC,0.719
8,GATGATTGTTCTCCCAGCTGATGAATTCCGAGTATCGAGTAAACAAATTTTCCTAATCTTTCTGTTCAAGCGCCATCTAC,0.57
9,GATGATTGTTCTCCCAGCTGATGAATTGAGACTCTCGAGTAAACAAATTTTCCTAATCTTTCTGTTCAAGCGCCATCTAC,1.67
10,GATGATTGTTCTCCCAGCTGATGAATTAGGGGTGTCGAGTAAACAAATTTTCCTAATCTTTCTGTTCAAGCGCCATCTAC,1.01
11,GATGATTGTTCTCCCAGCTGATGAATTGAGCCAGTCGAGTAAACAAATTTTCCTAATCTTTCTGTTCAAGCGCCATCTAC,1.18
12,GATGATTGTTCTCCCAGCTGATGAATTTTTTCCCTCGAGTAAACAAATTTTCCTAATCTTTCTGTTCAAGCGCCATCTAC,0.157
13,GATGATTGTTCTCCCAGCTGATGAATTGTTGAAATCGAGTAAACAAATTTTCCTAATCTTTCTGTTCAAGCGCCATCTAC,0.557
14,GATGATTGTTCTCCCAGCTGATGAATTGTATGGATCGAGTAAACAAATTTTCCTAATCTTTCTGTTCAAGCGCCATCTAC,1.09
15,GATGATTGTTCTCCCAGCTGATGAATTCCCGATCTCGAGTAAACAAATTTTCCTAATCTTTCTGTTCAAGCGCCATCTAC,0.219
16,GATGATTGTTCTCCCAGCTGATGAATTCACAGTCTCGAGTAAACAAATTTTCCTAATCTTTCTGTTCAAGCGCCATCTAC,0.384
17,GATGATTGTTCTCCCAGCTGATGAATTTCTGGCCTCGAGTAAACAAATTTTCCTAATCTTTCTGTTCAAGCGCCATCTAC,0.3
18,GATGATTGTTCTCCCAGCTGATGAATTGAGTAAGTCGAGTAAACAAATTTTCCTAATCTTTCTGTTCAAGCGCCATCTAC,0.372
19,GATGATTGTTCTCCCAGCTGATGAATTCCCCGGATCGAGTAAACAAATTTTCCTAATCTTTCTGTTCAAGCGCCATCTAC,0.142
20,GATGATTGTTCTCCCAGCTGATGAATTTGTACCATCGAGTAAACAAATTTTCCTAATCTTTCTGTTCAAGCGCCATCTAC,2.37
21,GATGATTGTTCTCCCAGCTGATGAATTGCTTTACTCGAGTAAACAAATTTTCCTAATCTTTCTGTTCAAGCGCCATCTAC,1.22

row,Sequence,binding signal (RPM ratio (pull-down/input))
1,GATGATTGTTCTCCCAGCTGATGAATTTTTTCTGTCGAGTAAACAAATTTTCCTAATCTTTCTGTTCAAGCGCCATCTAC,0.199
2,GATGATTGTTCTCCCAGCTGATGAATTAGAGGTCTCGAGTAAACAAATTTTCCTAATCTTTCTGTTCAAGCGCCATCTAC,0.486
3,GATGATTGTTCTCCCAGCTGATGAATTCGGGGGCTCGAGTAAACAAATTTTCCTAATCTTTCTGTTCAAGCGCCATCTAC,0.39
4,GATGATTGTTCTCCCAGCTGATGAATTACCGACGTCGAGTAAACAAATTTTCCTAATCTTTCTGTTCAAGCGCCATCTAC,0.316
5,GATGATTGTTCTCCCAGCTGATGAATTGGGGTATTCGAGTAAACAAATTTTCCTAATCTTTCTGTTCAAGCGCCATCTAC,0.979
6,GATGATTGTTCTCCCAGCTGATGAATTACCTACCTCGAGTAAACAAATTTTCCTAATCTTTCTGTTCAAGCGCCATCTAC,0.293
7,GATGATTGTTCTCCCAGCTGATGAATTAGTGGCGTCGAGTAAACAAATTTTCCTAATCTTTCTGTTCAAGCGCCATCTAC,1.48
8,GATGATTGTTCTCCCAGCTGATGAATTTGCCCACTCGAGTAAACAAATTTTCCTAATCTTTCTGTTCAAGCGCCATCTAC,0.555
9,GATGATTGTTCTCCCAGCTGATGAATTTACATAGTCGAGTAAACAAATTTTCCTAATCTTTCTGTTCAAGCGCCATCTAC,0.469
10,GATGATTGTTCTCCCAGCTGATGAATTCAGCAACTCGAGTAAACAAATTTTCCTAATCTTTCTGTTCAAGCGCCATCTAC,4.78
11,GATGATTGTTCTCCCAGCTGATGAATTCCTGGGATCGAGTAAACAAATTTTCCTAATCTTTCTGTTCAAGCGCCATCTAC,0.206
12,GATGATTGTTCTCCCAGCTGATGAATTCAGTTCATCGAGTAAACAAATTTTCCTAATCTTTCTGTTCAAGCGCCATCTAC,0.641
13,GATGATTGTTCTCCCAGCTGATGAATTGACTTGATCGAGTAAACAAATTTTCCTAATCTTTCTGTTCAAGCGCCATCTAC,0.281
14,GATGATTGTTCTCCCAGCTGATGAATTAGCGAATTCGAGTAAACAAATTTTCCTAATCTTTCTGTTCAAGCGCCATCTAC,1.06
15,GATGATTGTTCTCCCAGCTGATGAATTGCTTGTTTCGAGTAAACAAATTTTCCTAATCTTTCTGTTCAAGCGCCATCTAC,2.41
16,GATGATTGTTCTCCCAGCTGATGAATTGGAGGTGTCGAGTAAACAAATTTTCCTAATCTTTCTGTTCAAGCGCCATCTAC,0.523
17,GATGATTGTTCTCCCAGCTGATGAATTTTTATTCTCGAGTAAACAAATTTTCCTAATCTTTCTGTTCAAGCGCCATCTAC,0.391
18,GATGATTGTTCTCCCAGCTGATGAATTAGCATCTTCGAGTAAACAAATTTTCCTAATCTTTCTGTTCAAGCGCCATCTAC,4.84
19,GATGATTGTTCTCCCAGCTGATGAATTTAACTGCTCGAGTAAACAAATTTTCCTAATCTTTCTGTTCAAGCGCCATCTAC,0.395
20,GATGATTGTTCTCCCAGCTGATGAATTTTGCCCCTCGAGTAAACAAATTTTCCTAATCTTTCTGTTCAAGCGCCATCTAC,2.15
21,GATGATTGTTCTCCCAGCTGATGAATTCGCGCCATCGAGTAAACAAATTTTCCTAATCTTTCTGTTCAAGCGCCATCTAC,2.63

row,Sequence,binding signal (RPM ratio (pull-down/input))
1,GATGATTGTTCTCCCAGCTGATGAATTAGGCCGGTCGAGTAAACAAATTTTCCTAATCTTTCTGTTCAAGCGCCATCTAC,0.493
2,GATGATTGTTCTCCCAGCTGATGAATTATACAGGTCGAGTAAACAAATTTTCCTAATCTTTCTGTTCAAGCGCCATCTAC,0.455
3,GATGATTGTTCTCCCAGCTGATGAATTACGCGCTTCGAGTAAACAAATTTTCCTAATCTTTCTGTTCAAGCGCCATCTAC,0.98
4,GATGATTGTTCTCCCAGCTGATGAATTGGTCTTCTCGAGTAAACAAATTTTCCTAATCTTTCTGTTCAAGCGCCATCTAC,0.432
5,GATGATTGTTCTCCCAGCTGATGAATTAAAGAAGTCGAGTAAACAAATTTTCCTAATCTTTCTGTTCAAGCGCCATCTAC,0.172
6,GATGATTGTTCTCCCAGCTGATGAATTACTACATTCGAGTAAACAAATTTTCCTAATCTTTCTGTTCAAGCGCCATCTAC,0.586
7,GATGATTGTTCTCCCAGCTGATGAATTCCTCACGTCGAGTAAACAAATTTTCCTAATCTTTCTGTTCAAGCGCCATCTAC,0.269
8,GATGATTGTTCTCCCAGCTGATGAATTGGTGGATTCGAGTAAACAAATTTTCCTAATCTTTCTGTTCAAGCGCCATCTAC,0.614
9,GATGATTGTTCTCCCAGCTGATGAATTTGGGTTCTCGAGTAAACAAATTTTCCTAATCTTTCTGTTCAAGCGCCATCTAC,0.955
10,GATGATTGTTCTCCCAGCTGATGAATTGCTGTAGTCGAGTAAACAAATTTTCCTAATCTTTCTGTTCAAGCGCCATCTAC,0.741
11,GATGATTGTTCTCCCAGCTGATGAATTATGTTTTTCGAGTAAACAAATTTTCCTAATCTTTCTGTTCAAGCGCCATCTAC,6.33
12,GATGATTGTTCTCCCAGCTGATGAATTTAACGGGTCGAGTAAACAAATTTTCCTAATCTTTCTGTTCAAGCGCCATCTAC,0.287
13,GATGATTGTTCTCCCAGCTGATGAATTTCATGAGTCGAGTAAACAAATTTTCCTAATCTTTCTGTTCAAGCGCCATCTAC,0.45
14,GATGATTGTTCTCCCAGCTGATGAATTTGGCTCATCGAGTAAACAAATTTTCCTAATCTTTCTGTTCAAGCGCCATCTAC,0.584
15,GATGATTGTTCTCCCAGCTGATGAATTTGCCGCATCGAGTAAACAAATTTTCCTAATCTTTCTGTTCAAGCGCCATCTAC,1.35
16,GATGATTGTTCTCCCAGCTGATGAATTGCGCGTATCGAGTAAACAAATTTTCCTAATCTTTCTGTTCAAGCGCCATCTAC,2.06
17,GATGATTGTTCTCCCAGCTGATGAATTCACCTGCTCGAGTAAACAAATTTTCCTAATCTTTCTGTTCAAGCGCCATCTAC,0.292
18,GATGATTGTTCTCCCAGCTGATGAATTCCGACCCTCGAGTAAACAAATTTTCCTAATCTTTCTGTTCAAGCGCCATCTAC,0.394
19,GATGATTGTTCTCCCAGCTGATGAATTAGCCGAGTCGAGTAAACAAATTTTCCTAATCTTTCTGTTCAAGCGCCATCTAC,0.207
20,GATGATTGTTCTCCCAGCTGATGAATTTTCTTATTCGAGTAAACAAATTTTCCTAATCTTTCTGTTCAAGCGCCATCTAC,0.67
21,GATGATTGTTCTCCCAGCTGATGAATTGTACCAGTCGAGTAAACAAATTTTCCTAATCTTTCTGTTCAAGCGCCATCTAC,0.338

# Source: PMC12820563
